This is one part of the list. Sequences were assembled here from the parent chain. Inactive controls read about 0.05.
B1: TEV protease; numbered along this chain (parent)
chain: MGESLFKGPRDYNPISSSICHLTNESDGHTTSLYGIGFGPFIITNKHLFRRNNGTLVVQSLHGVFKVKDTTTLQQHLVDGRDMIIIRMPKDFPPFPQKLKFREPQREERICLVTTNFQTKSMSSMVSDTSCTFPSGDGIFWKHWIQTKDGQCGSPLVSTRDGFIVGIHSASNFTNTNNYFTSVPKNFMELLTNQEAQQWVSGWRLNADSVLWGGHKVFMVKPEEPFQPVKEATQL

Variants of: B1
Test: raw area under fraction-flipped curve 0-4 h after induction (AUC4h, not background-subtracted), DNA-recorder readout of cleavage of the substrate (dimensionless); higher = more cleavage of the substrate by the protease variant
Details: temperature: 34 °C; time window: 0-4 h after rhamnose induction
Description: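 In vivo DNA recorder in E. coli TOP10(DE3) ΔrhaA at 34 °C. Each TEVp single-site mutant (parent TEVp 0) is paired with a single-site variant of the 7-mer TEVs (canonical ENLYFQ|S). The substrate sits between flexible linkers in a Bxb1-sfGFP-TEVs-SsrA fusion, so cleavage stabilises Bxb1 and speeds flipping of a recombination array, read by NGS. The value is the raw area under the fraction-flipped curve over 0-4 h after rhamnose induction (AUC4h), with ≥20 reads per time point. It is not background-subtracted; inactive controls average about 0.047.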
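Note: Bxb1 expression induced with 0.2% (w/v) L-rhamnose at OD600 near 0.5, cultures sampled hourly, flipped fraction per protease–substrate barcode pair counted by paired-end Illumina sequencing.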

Variant | area with substrate ENAYFQS | area with substrate ENCYFQS | area with substrate ENDYFQS | area with substrate ENEYFQS | area with substrate ENFYFQS | area with substrate ENKYFQS | area with substrate ENNYFQS | area with substrate ENQYFQS | area with substrate ENSYFQS | area with substrate ENVYFQS | area with substrate ENWYFQS | area with substrate ENGYFQS | area with substrate ENHYFQS | area with substrate ENIYFQS | area with substrate ENMYFQS | area with substrate ENRYFQS | area with substrate ENTYFQS | area with substrate ENPYFQS | area with substrate ENYYFQS
H21Y | 0.0634 | 0.0804 | 0.0552 | 0.0545 | 0.0512 | 0.097 | 0.0602 | 0.0522 | 0.066 | 0.0597 | 0.0534 | – | – | – | – | – | – | – | –
L22K | 0.0434 | 0.0351 | 0.0477 | 0.0496 | – | – | 0.0534 | 0.0477 | 0.0349 | 0.0463 | 0.0446 | 0.0567 | 0.0406 | 0.0543 | 0.0298 | 0.0465 | 0.048 | – | –
L22V | 0.0646 | 0.0733 | 0.0711 | 0.0819 | 0.061 | 0.0601 | 0.0536 | 0.0629 | 0.0463 | 0.0489 | 0.0442 | 0.075 | 0.0816 | 0.083 | 0.0843 | 0.0573 | 0.058 | 0.0532 | 0.0535
L22W | 0.0588 | – | 0.051 | 0.0398 | 0.0467 | 0.055 | 0.0486 | 0.0511 | 0.0559 | 0.0582 | – | 0.0424 | – | – | – | 0.0629 | 0.0517 | – | 0.0537
T23R | 0.0577 | 0.0649 | 0.0641 | 0.0641 | – | – | 0.0541 | 0.0528 | 0.06 | 0.0834 | – | 0.0657 | 0.0621 | 0.101 | – | 0.0523 | 0.0508 | 0.0635 | 0.0478
T23S | 0.0841 | 0.065 | 0.0651 | 0.0657 | 0.0582 | – | 0.0559 | 0.059 | 0.0633 | 0.0681 | 0.0149 | 0.0807 | 0.0548 | 0.0971 | – | 0.0656 | 0.0717 | 0.0701 | –
E25P | 0.0494 | 0.0166 | 0.065 | 0.0631 | 0.0527 | – | – | 0.0635 | 0.0606 | – | – | 0.0444 | – | 0.0748 | 0.0632 | 0.056 | – | – | 0.0556
S26C | 0.0532 | 0.0677 | 0.059 | 0.0458 | 0.0568 | 0.0585 | 0.0734 | 0.0584 | 0.0642 | 0.0838 | – | – | 0.0483 | 0.0874 | – | 0.0553 | 0.0634 | 0.0607 | –
S26F | 0.0545 | 0.0579 | 0.067 | 0.0515 | 0.0528 | 0.0659 | 0.0594 | 0.0554 | 0.0638 | 0.0668 | 0.058 | – | – | 0.0763 | 0.0479 | 0.0516 | 0.0608 | 0.0404 | –
D27A | 0.0524 | – | 0.052 | 0.0566 | 0.0588 | 0.0538 | 0.0563 | 0.0418 | 0.0472 | – | – | 0.0476 | 0.0576 | 0.0882 | 0.0749 | 0.0462 | 0.073 | 0.0469 | 0.0553
D27K | 0.0912 | 0.0661 | 0.0615 | 0.0514 | – | – | 0.0573 | 0.0605 | 0.0614 | 0.0722 | – | 0.0704 | – | – | 0.0675 | 0.0633 | – | – | 0.0597
D27Q | 0.0656 | 0.0666 | 0.0592 | 0.0982 | 0.0566 | 0.0647 | – | 0.0558 | 0.0584 | 0.0793 | – | 0.0578 | – | – | 0.0827 | – | 0.0643 | 0.057 | 0.052
